Reference: PubChem BioAssay AID1508624 (National Center for Advancing Translational Sciences (NCATS), 2021)
In all, about 48,000 compounds went through this assay and about 120 (0.25%) were called active. Inconclusive results (about 4%) are left out. Calls follow the shape of the dose curve; as a rule, active = well fitted activation curve with a large enough effect; inconclusive = small, poorly fitted or top-dose-only effect, or another doubt; inactive = no such curve, though single readings can be large or run the other way. The list shows a part of the results.

Experiment: Primary qHTS for Identification of Small Molecule Activators of Huntingtin-Antisense Promoter Activity; also: nearly all actives have a fitted effect of over 55% in size
Settings: HEK293 HTT-AS promoter firefly luciferase reporter, 24 h; series mostly up to 57.5 µM; activity change, positive = activation: at the top concentration
In short: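 Luminescence was read after Dual-Glo reagent and a 10 min room-temperature incubation. Values were normalized to vehicle (0% activity) and zero RLU (-100% activity). Reporter HEK293 cells had been exposed to compounds (up to 57.5 uM final) for 24 h.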

Activity change, positive = activation, inactive:
O=C(NCc1ccco1)c1ccc2c(c1)N(Cc1ccc(F)cc1)C(=O)c1ccccc1S2=O (stereo not drawn) -39.7%
COc1cc(NC(=O)CCc2c(C)n(C)c3cc(-c4ccccc4C)nn3c2=O)cc(OC)c1OC -5.03%
CCOc1ccccc1NC(=O)c1sc2nc3c(cc2c1N)CN(Cc1ccccc1)CC3 -15.2%
CC(C)c1ccc(C2=CC(c3cccc(Cl)c3)n3ncnc3N2)cc1 (stereo not drawn) -20.4%
Cc1ccc(NC(=O)CCS(=O)(=O)c2cccc3nonc23)c(C)c1 -16.7%
CCOc1ccc(NC(=O)Cn2c(CCC(=O)O)ccc2-c2ccc(Cl)cc2)cc1 -8.46%
CCCN1C(C(=O)c2ccccc2)=C(OC(=O)c2ccc(F)cc2)c2ccccc2S1(=O)=O -29.7%
Cc1ccc(C)c(Cn2c3ccccc3c3cnn(CC(=O)N4CCCCC4)c(=O)c32)c1 6.67%
O=C(OCCN1CCOCC1)c1cccnc1Nc1cccc(C(F)(F)F)c1 -15.3%
COc1ccc(Cl)cc1NC(=O)c1cc(S(=O)(=O)N2CCc3ccccc32)cn1C -17.6%
Cc1cccc(-n2c(=O)c3ccccc3n(Cc3ccccc3C#N)c2=O)c1 -17.1%
COc1cc2c(C(=O)N3CCN(c4cccc(C)c4)C(C)C3)cn(CC(C)C)c(=O)c2cc1OC (stereo not drawn) -19.3%
Cc1nn(CCC(=O)NC(C)C)c(=O)c2nn(-c3ccccc3)c(C)c12 -0.967%
Cc1cccc(-c2noc(-c3ccc(N4CCCC4)c([N+](=O)[O-])c3)n2)c1 -67.9%
COc1ccc(NC(=O)C2CCN(S(=O)(=O)c3c(C)noc3/C=C/c3ccco3)CC2)cc1 -22.8%
CCCCC(=O)O[C@]1(C(=O)CO)CC[C@H]2[C@@H]3CCC4=CC(=O)CC[C@]4(C)[C@H]3[C@@H](O)C[C@@]21C -15.2%
CCN(C(=O)CN(C)S(=O)(=O)c1ccc2c(c1)n(C)c(=O)c(=O)n2C)c1cccc(C)c1 -12.4%
CN(C)c1ccc(C(CNS(=O)(=O)c2cc(F)ccc2F)N2CCOCC2)cc1 (stereo not drawn) -7.53%
Cc1cc(C)c(Cn2c(=O)n(CCCCCC(=O)NCc3ccc4c(c3)OCO4)c(=O)c3sccc32)c(C)c1 -11.2%
O=C(CSCc1ccc(F)cc1)N1CCN(c2ccccc2)CC1 20%
COc1cccc(NC(=O)Cn2c(=O)n(-c3cccc(OC)c3)c(=O)c3c4c(sc32)CCCC4)c1 2.19%
CCc1cccc2c3c([nH]c12)C(CC)(CC(=O)O)OCC3 (stereo not drawn)
CCc1ccc(C2C(C(=O)Nc3ccccc3)=C(C)Nc3nc(SCC(=O)c4ccc(C)cc4)nn32)cc1 (stereo not drawn) 3.09%
CC(=O)c1ccc(NC(=O)Cn2c3ncccc3c(=O)n2-c2ccc(C)cc2)cc1 -25.3%
COc1ccc(NC(=O)c2cnc(SCC(=O)Nc3nc4ccc(C)cc4s3)n(C)c2=O)cc1 24.7%
Cc1ccc(-c2noc(CSc3nnc(-c4ccc(Cl)cc4)n3C)n2)cc1 -16%
Cc1cccc(C(=O)NCC(c2ccc3c(c2)OCO3)N2CCOCC2)c1 (stereo not drawn) -11.1%
O=C(c1ccco1)c1cn(CCOc2ccc(Cl)cc2)c2ccccc12 -9.28%
O=C(c1cccs1)N1CCCc2cc(NS(=O)(=O)c3ccc(Cl)cc3)ccc21 -30.7%
Cc1noc(NS(=O)(=O)c2ccc(N)cc2)c1C
COc1ccc(C(CNC(=O)c2ccc(C)cc2)N2CCOCC2)cc1 (stereo not drawn) -7.37%
CCC(=O)N1CCc2cc(CNC(=O)Nc3ccc(OC)cc3OC)ccc21 -0.752%
O=C(NCCc1ccccc1)C(=O)NCC(c1cccnc1)N1CCN(c2ccc(F)cc2)CC1 (stereo not drawn) -48.6%
O=C(CSc1nccn1Cc1ccccc1)NC1CCCC1 -1.9%
O=C(CCCc1nc(-c2ccco2)no1)Nc1ccccc1[N+](=O)[O-] -11%
COc1cccc(-n2c(=O)c3c4c(sc3n(Cc3ccc(F)cc3Cl)c2=O)CCCC4)c1 5.45%
COc1ccc(C2=NN(C(C)=O)C(c3cn(-c4ccccc4)nc3-c3cccs3)C2)cc1 (stereo not drawn) -32.4%
COc1ccc(-c2[nH]ncc2C(=O)NCc2cccc(F)c2)cc1 -8.68%
CCC1CCCCN1S(=O)(=O)c1ccc(N2CCCCS2(=O)=O)cc1 (stereo not drawn) -2.4%
CCOC(=O)c1ccc(NC(=O)c2c(C)oc3nc(C)nc(N4CCCC4)c23)cc1 2.11%
C[C@@H]1CN(CC(=O)Nc2ccc3c(c2)Cc2cccc(-c4cc(=O)cc(N5CCOCC5)o4)c2S3)C[C@H](C)O1 -36.9%
Cc1ccc(-n2nc(-c3ccc(F)cc3)c3cnc4cc5c(cc4c32)OCO5)cc1C -12.6%
CCc1ccc(NC(=O)CC(c2ccc(C)cc2)N2Cc3ccccc3C2=O)cc1 (stereo not drawn) -16.9%
Cc1ccc(Cl)cc1N1CCN(C(=O)CCSCc2ccccc2F)CC1 -10.3%
CCc1ccc(-c2cc(C)no2)cc1S(=O)(=O)N1CCN(c2cccc(Cl)c2)CC1 -45.7%
Cc1c(C(=O)Nc2ccc(Br)cc2F)oc2ccc(S(=O)(=O)N3CCC4(CC3)OCCO4)cc12 -20.1%
COc1ccc(NC(=O)c2oc3ccc(S(=O)(=O)N(C)C4CCCCC4)cc3c2C)cc1Cl -29.3%
Cc1ccc(CN(C(=O)c2ccccc2Br)C2CCS(=O)(=O)C2)o1 (stereo not drawn) -9.54%
O=C(NCc1ccc(Cl)cc1)C(=O)Nc1cccc(Br)c1 -19.1%
CC1CCC(NC(=O)c2ccc3c(c2)N(Cc2cccc(Cl)c2)C(=O)c2ccccc2S3=O)CC1 (stereo not drawn) 26.7%
Cn1c(=O)c2c(SCC(=O)NCc3ccco3)nc(-c3ccccc3F)nc2n(C)c1=O -6.2%
Cc1ccc(NC(=O)Nc2cc3c(cc2N2CCCCC2)n(C)c(=O)n3C)cc1Cl -43.6%
CCOc1ccccc1NC(=O)COc1cccc2c(=O)n(CCOC)ccc12 -23.5%
COc1ccc(-c2[nH]ncc2C(=O)NCc2cccc(OC)c2)cc1 -12.2%
COc1cccc(CNCc2cccn2-c2nnc(N3CCN(c4ccccc4)CC3)s2)c1 -18.9%
CCOc1cccc2cc(-c3cn4c(n3)sc3ccccc34)c(=O)oc12 10.7%
Cc1ccsc1CN(C(=O)COc1ccc(Cl)cc1)C1CCS(=O)(=O)C1 (stereo not drawn) -14.2%
O=C(CCn1c(=O)c2sccc2n(CC(=O)Nc2ccccc2)c1=O)NCc1ccccc1Cl 8.74%
CCn1c(=O)cc(SCC(=O)NCc2ccc(Cl)cc2)c2ccccc21 -9.16%
CCOC(=O)[C@H](CCc1ccccc1)N[C@@H](C)C(=O)N1CCC[C@H]1C(=O)O 0.478%
Cc1ccc(CNC(=O)CSc2nnc(C)c3c(C)n(-c4ccccc4)nc23)cc1 -45.4%
CC1CCN(S(=O)(=O)c2ccc3c(ccc(=O)n3CC(=O)NCc3ccccc3Cl)c2)CC1 -12.6%
Cc1cc(OCC(=O)NC(Cc2c[nH]c3ccccc23)C(=O)O)ccc1Cl (stereo not drawn) -0.648%
Cc1oc2ncn(C)c(=O)c2c1C(=O)Nc1ccc(F)cc1 6.2%
CCOC(=O)c1[nH]c(C)c(CCC(=O)Nc2ccccc2C(=O)OC)c1C -28.5%
Cc1cc(N2CCN(c3ccc(F)cc3)CC2)n2nc(-c3ccc(Cl)cc3)nc2n1 -3.9%
CCc1nn(CC(=O)NCCc2ccc(Cl)cc2)c(=O)c2cc3ccccc3n12 -5.24%
Cc1ccc(-c2nnc(Nc3ccccc3)c3ccccc23)cc1S(=O)(=O)N1CCOCC1 11.4% [at 11.5 µM, percent change from vehicle, -100% = no light]
CCOc1ccc2nc(N(Cc3cccnc3)C(=O)C3CCCCC3)sc2c1 -10.9%
Cc1ccc(CNC(=O)c2ccc3c(c2)N(Cc2ccccc2Cl)C(=O)CS3)cc1 -26.7%
Cc1cccc(N2CCN(C(=O)c3oc(=O)c4ccccc4c3-c3ccccc3)CC2C)c1 (stereo not drawn) -13.1%
COc1ccc(Cn2c(CCC(=O)Nc3ccc(C)cc3C)nc3cccnc32)cc1 -14.3%
O=C1CC2(CCCC2)CC(=O)N1CCNCC1COc2ccccc2O1 (stereo not drawn) 0.926%
COc1cccc(CNC(=O)c2cccc(-n3c(C)nc4cccnc43)c2C)c1 -12.9%
Cc1cccc(CSc2nc(=O)c3c(n2C)NC(=O)CC3c2cc(F)cc(F)c2)c1 (stereo not drawn) -14%
CC(C)OCCCNC(=O)c1ccc(Cn2c(=O)c3cccn3c3cccnc32)cc1 -17.1%
Cc1cccc(NC(=O)c2oc3ccccc3c2NC(=O)c2cc(=O)c3ccc(C)cc3o2)c1 -7.42%
Cc1cc(NC(=O)CCc2nc3cccnc3n2Cc2cccs2)ccc1Br -24.3%
COc1ccnc2[nH]cc(C(=O)C(=O)N3CCN(C(=O)c4ccccc4)C[C@@H]3C)c12 -17.6%
Cc1ccc(-n2c(=O)c3c(cnn3C)n(Cc3ccc(Cl)cc3)c2=O)cc1 -25.6%
CCOc1ccc(CNC(=O)c2ccc3[nH]c(C)c(C)c3c2)cc1OC -15.1%
CCOc1cc(C(=O)Nc2ccc(NC(=O)c3cc4ccccc4o3)c(OC)c2)cc(OCC)c1OCC -22.7%
Cc1nc2ccc(CN(C)c3ccc(C(=O)N[C@@H](CCC(=O)O)C(=O)O)s3)cc2c(=O)[nH]1 -7.53%
CCOc1ccc2nc(N3CCCC(C(=O)Nc4cc(C)ccc4C)C3)sc2c1 (stereo not drawn) 7.42%
Cc1ccc(NC(=O)Nc2c[nH]c(=O)[nH]c2=O)c(Cl)c1 -4.8%
CCc1ccccc1NC(=O)CSc1nnc(-c2ccc(OC)cc2)s1 -31.8%
CC(=O)Nc1ccc(NC(=O)C2CCN(S(=O)(=O)c3ccc4c(c3)CCCC(=O)N4)CC2)cc1 0.448%
Cc1ccc(NS(=O)(=O)c2cc(-c3cc(C)no3)ccc2C)c(Cl)c1 -30.6%
COc1ccc(NC(=O)CSC2=Nc3ccccc3N=C(c3ccc(F)cc3)C2)cc1OC -24.7%
CCN(C(=O)CCNC(=O)Cn1cnc2ccccc2c1=O)c1cc(OC)ccc1OC -3.27%
Cc1ccc2c(c1)c1c(c(=O)n(-c3ccccc3C)c(=O)n1CC(=O)c1ccc(Cl)cc1)n2C -8.59%
O=S(=O)(c1ccc(Cl)cc1)c1nnn2c1nc(NC1CCCCC1)c1sccc12 -24.2%
CCC1CN(C(=O)N2CCC(C(=O)NCc3cc(OC)c(OC)c(OC)c3)CC2)c2ccccc2O1 (stereo not drawn) -14.9%
